Test results reported in PubChem BioAssay (NCATS).
This is one part of the list. These are further read-outs of the screen, such as a control signal, another cell line or another target. No call is given for them. Compounds called inactive in the main read-out are mostly missing here. The note in brackets gives the kind of curve behind each potency; many fits are weak.

Assay: qHTS Assay for Lipid Storage Modulators (AID 1519)
Conditions: Drosophila S3 cells, BODIPY lipid droplet/cell ratio, laser cytometry, cells loaded with oleic acid
Method in brief: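 Cells seeded at 5,000 per well were treated with compounds over a concentration series and loaded with oleic acid (400 uM, as added). Lipid droplet fluorescence (488 nm excitation, 500-530 nm channel) was read by laser-scanning cytometry and normalized to 20 uM Triacsin C.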

[1] = measured here: cell count channel max response
[2] = measured here: cell number channel AC50
[3] = measured here: lipid (BODIPY) channel AC50
[4] = measured here: lipid channel max response
Tags tell the direction and shape of the fitted curve.

SMILES	max response [1] [%]	AC50 [2]	AC50 [3]	max response [4] [%]
COc1ccc(CNc2ncncc2-c2ccc(C(=O)N(C)C)cc2)c(OC)c1	28.3	0.891 µM [rising, full curve]	0.891 µM [rising, full curve]	38.2
COc1ccc([N+](=O)[O-])c2c1CCN2C(=O)CC[C@H](N)C(=O)O	43.3	35.5 µM [rising, single point]	35.5 µM [rising, single point]	47.1
O=c1c(-c2ccc(Cl)cc2)nc2cnc(N3CCOCC3)nc2n1CCc1ccccc1	37.1	3.98 µM [rising, full curve, poor fit]	3.16 µM [rising, full curve, poor fit]	44
COCCn1c(=O)c(-c2ccc(OC)cc2)nc2cnc(Oc3ccccc3)nc21	3.95	4.47 µM [rising, partial curve]	4.47 µM [rising, partial curve]	3.83
O=C1C[C@H](c2ccccc2)Oc2cc(O)cc(O)c21	98.2	28.2 µM [rising, partial curve, poor fit]	31.6 µM [rising, partial curve, poor fit]	126
COc1ccc2[nH]cc(CCNc3ncncc3-c3ccc(C(=O)N(C)C)cc3)c2c1	24.1	0.126 µM [rising, full curve]	0.158 µM [rising, full curve]	25.3
COc1cccc(Nc2ncc3nc(-c4cccs4)c(=O)n(CCC#N)c3n2)c1	47.2	5.01 µM [rising, partial curve]	39.8 µM [falling, single point]	-46.4
CCCCCCCCCCCCCCC/C=C/[C@@H](O)[C@H](NC(=O)CCCCCCCCCCCCC)OC (tested in a mixture with another compound)	-4.8	15.8 µM [falling, single point]	15.8 µM [falling, single point]	-2.81
N#CCCn1c(=O)c(-c2ccccc2)nc2cnc(Oc3ccccc3)nc21	19.9	5.01 µM [rising, partial curve, poor fit]	0.0224 µM [rising, full curve]	31.9
COc1cccc(Cn2c(=O)c(CCc3ccccc3)nc3cnc(N4CCN(C)CC4)nc32)c1	25.1	0.708 µM [rising, full curve, poor fit]	0.631 µM [rising, full curve, poor fit]	23.5
Clc1ccccc1-c1nc(NCc2cccnc2)c2ccccc2n1	30.2	0.1 µM [rising, full curve]	0.112 µM [rising, full curve]	34.6
CN1CCN(c2nc(-c3cccnc3)nc3ccccc23)CC1	12.3	3.98 µM [rising, partial curve, poor fit]	2.24 µM [rising, partial curve, poor fit]	16.2
N#Cc1cccc(-c2nc(NCc3ccccc3)c3ccccc3n2)c1	36.1	2.51 µM [rising, full curve, poor fit]	2.51 µM [rising, full curve, poor fit]	47.2
Cc1noc(C)c1-c1nc(NC2CC2)c2ccccc2n1	24.1	0.0447 µM [rising, full curve]	0.02 µM [rising, full curve, poor fit]	28
Clc1ccccc1-c1cc(NCc2cccnc2)ncn1	28.4	3.55 µM [rising, full curve, poor fit]	3.55 µM [rising, full curve]	41
CCNc1ncc2nc(-c3ccc(OC)cc3)c(=O)n(CCC#N)c2n1	38.2	3.16 µM [rising, partial curve, poor fit]	1.26 µM [rising, full curve, poor fit]	44.6
Cc1cccc(CNc2cc(-c3ccc(N(C)C)cc3)ncn2)c1	-41	22.4 µM [falling, partial curve]	25.1 µM [falling, partial curve]	-111
CN(C)c1ccc(-c2cncnc2N(C)Cc2ccco2)cc1	22.8	1 µM [rising, partial curve]	0.794 µM [rising, partial curve]	31.8
